Measurements from PubChem BioAssay AID686971 (National Center for Advancing Translational Sciences (NCATS), 2013).
In all, about 360,000 compounds went through this assay and about 7,500 (2.1%) were called active. Inconclusive means that the source gave no clear call. Such entries were picked first, then a sample of the others. Calls follow the shape of the dose curve; as a rule, active = well fitted cell-killing curve with a large enough effect; inconclusive = small, poorly fitted or top-dose-only effect, or effect the other way, or another doubt; inactive = no such curve, though single readings can be large or run the other way. Potencies of inconclusive entries are left out as doubtful fits.

Experiment: qHTS for induction of synthetic lethality in tumor cells producing 2HG: qHTS for the HT-1080-IDH1KD cell line;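 as to activity, negative = toxicity: 0% = DMSO wells and -100% = cell-free medium wells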
Conditions: HT-1080 IDH1 knockdown viability, ATP luminescence, 48 h; activity, negative = toxicity: at 46.1 µM (top of the series) unless noted
How it was run: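 Cytotoxicity counter-line: IDH1KD HT-1080, 48 h, CellTiter-Glo. Curves classed by r2, magnitude and activity.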
Potency is read from the fitted curve at half-maximal effect; tags tell the direction and shape of the fitted curve.

Row | SMILES | Potency | activity, negative = toxicity
1 | COc1ccccc1/C=C/c1ccc2cccc(O)c2n1 | inconclusive [cytotoxic, single point] | –
2 | CC1(c2ccc(OCC#N)cc2)C=C(c2ccc(OCC#N)cc2)n2nc(C(F)(F)F)nc2N1 (configuration not stated) | inconclusive [cytotoxic, single point] | –
3 | Cc1ccc2nc(-c3ccco3)c(Cc3cccc(Cl)c3)n2c1 | inconclusive [cytotoxic, single point] | –
4 | O=C(Nc1nc2cc(Cl)ccc2s1)C1CCCN(S(=O)(=O)c2cccc3cccnc23)C1 (configuration not stated) | inconclusive [cytotoxic, partial curve] | –
5 | CCOc1cc(OCC)cc(C(=O)NCCN2CCC(n3c(=O)[nH]c4ccccc43)CC2)c1 | inconclusive [cytotoxic, single point] | –
6 | COc1cc(OC)cc(C(=O)NC(=S)N2CCCCCC2)c1 | – | inactive: 0.965%
7 | O=C(NCc1cccc(F)c1)c1cccc2c1C(=O)c1ccc(N3CCC(Cc4ccccc4)CC3)cc1S2(=O)=O | – | inactive: -0.381%
8 | Cc1cccc(-c2nc(Nc3ccc(O)cc3)c3ccccc3n2)c1 | active: 11.6 µM | –
9 | CCCn1c(-c2cccnc2Cl)nc2cc(Cl)c(Cl)cc21 | inconclusive [cytotoxic, single point] | –
10 | Cc1cc(NNC(=O)c2cccc(C(F)(F)F)c2)nc2c1c(C)nn2C | – | inconclusive: -32% [cytotoxic]
11 | CCc1ccc(NC(=O)c2cnn3ccccc23)cc1 | inconclusive [cytotoxic, single point] | –
12 | CCc1ccc(-c2cc(C(=O)N/N=C/c3c[nH]c4ccccc34)[nH]n2)cc1 | active: 3.66 µM | –
13 | CCCCNC(=O)NCC(=O)Nc1ccc(F)c(F)c1 | inconclusive [cytotoxic, single point] | –
14 | CC(C)C(C(=O)Nc1ccncc1)c1ccc(Cl)cc1 (configuration not stated) | inconclusive [cytotoxic, single point] | –
15 | O=C(Cc1ccccc1)NNC(=O)Nc1ccc(Cl)c(Cl)c1 | active: 14.6 µM | –
16 | CS(=O)(=O)c1ccc(Cl)c(C(=O)O)c1 | inconclusive [rising, full curve] | –
17 | O=C(CCCn1c(=S)[nH]c2ccsc2c1=O)Nc1ccc2c(c1)OCCO2 | – | inactive: 0.408%
18 | Cc1ccc(-n2ncc3c(SCc4cccnc4)ncnc32)c(C)c1 | inconclusive [cytotoxic, partial curve, poor fit] | –
19 | COc1ccc(C=CC(=O)c2ccc(OC)c(OC)c2O)cc1OC | active: 25.9 µM | –
20 | CCOC(=O)c1[nH]c(C)c(C(=O)N2CCN(c3cccc(Cl)c3)CC2)c1C | inconclusive [cytotoxic, single point] | –
21 | C=CCN(CC=C)Cc1cc(=O)oc2ccc3ccccc3c12 | inconclusive [cytotoxic, single point] | –
22 | CCc1nnc(NC(=O)CSc2nnc(-c3ccccc3O)n2-c2ccc(C)cc2C)s1 | inconclusive [cytotoxic, single point] | –
23 | CCc1c(C)nc2ncnn2c1N1CCCC(C(=O)Nc2cc(F)ccc2C)C1 (configuration not stated) | – | inactive: -15.6%
24 | CCc1cc2ccccc2nc1SCC(=O)Nc1cc(C)on1 | inconclusive [cytotoxic, partial curve, poor fit] | –

Row | SMILES | Potency | activity, negative = toxicity
25 | COc1cc(C(=O)N/N=C/c2sccc2C)cc(OC)c1OC | active: 0.259 µM | –
26 | CCSc1nc(N2CCCCC2)c2c(c1C#N)CCCC2 | – | inactive: 22.1%
27 | CN(C)CCCN(C(=O)c1ccc2c(c1)CCCC2)c1nc2ccc(Cl)cc2s1 | inconclusive [cytotoxic, single point] | –
28 | O=C(Cc1coc2cc3c(cc12)CCC3)NCC1(N2CCCCC2)CCCCC1 | inconclusive [cytotoxic, single point] | –
29 | CC(C)=NNc1nc(-c2ccc([N+](=O)[O-])cc2)cs1 | inconclusive [cytotoxic, partial curve] | –
30 | Cc1cc(/C=C2\SC(=Nc3ccc(F)cc3)NC2=O)c(C)n1-c1ccc(S(N)(=O)=O)cc1 | active: 5.17 µM | –
31 | Cc1cc(C)c(S(=O)(=O)NC(CC(=O)O)c2cccc([N+](=O)[O-])c2)c(C)c1 (configuration not stated) | – | inactive: -5.46%
32 | COc1cc2cc(CCCO)oc(=O)c2cc1OC | – | inactive: 1.8%
33 | CC1c2ccccc2N(S(=O)(=O)c2ccccc2)C1C (configuration not stated) | inconclusive [cytotoxic, partial curve] | –
34 | COc1ccc(OC)c(/C=C/c2[nH]c(=O)[nH]c(=O)c2[N+](=O)[O-])c1 | inconclusive [cytotoxic, single point] | –
35 | Cc1cc(C)n(-c2nnc3c4ccccc4n(C)c3n2)n1 | – | inconclusive: 25.5%
36 | Cc1[nH]c2ccc(-c3n[nH]c(=S)n3Cc3ccccc3)cc2c1C | – | inactive: -27.2%
37 | O=C(O)c1ccc(CSCc2ccccc2)o1 | inconclusive [cytotoxic, single point] | –
38 | CN(C)C1=NC[C@H](Cc2ccccc2)N1CC1CCCC1 | – | inactive: -9.11%
39 | CC(=O)c1ccc(-c2ccc(C(=O)Nc3nc(-c4ccccn4)cs3)o2)cc1 | active: 10.3 µM | –
40 | O=C(N/C(=C/c1cccs1)C(=O)N1CCOCC1)c1ccccc1 | – | inactive: 16.4%
41 | O=C(CN(C(=O)C1COc2ccccc2O1)c1ccccc1)NCC1CCCO1 (configuration not stated) | – | inconclusive: 6.75% [cytotoxic]
42 | CC1=C(C(=O)c2ccccc2)C(c2cn(-c3ccccc3)nc2-c2ccc(Cl)cc2)NC(=S)N1 (configuration not stated) | inconclusive [cytotoxic, single point] | –
43 | COc1ccc(-c2n[nH]c3c2CN(C(=O)c2ccc(OC)c(OC)c2)CC3)cc1 | active: 20.6 µM | –
44 | COc1ccc2nc(C)cc(NCc3cccc(C(F)(F)F)c3)c2c1 | active: 16.4 µM | –
45 | COc1cc(C(=O)NNC(=S)NC(=O)c2ccc(Cl)cc2)cc(OC)c1OC | inconclusive [cytotoxic, single point] | –
46 | O=C(CCN1C(=O)/C(=C/c2ccccc2F)SC1=S)N[C@@H](CO)Cc1ccccc1 | inconclusive [cytotoxic, single point] | –
47 | CCN(CC)CCCNC(=O)c1cc2c(=O)n(CC)c3ccccc3c2s1 | inconclusive [cytotoxic, single point] | –
